Among the data in the RNAGym collection of RNA variant scans (doi:10.7554/elife.90254) are self-cleavage values, retold here.

B1: LINE1-full (parent)
chain: UACGUAGGUGGUUUUCCCCUGAUAGUGCUAAGGGGGCCUGGAAGUUUGGACUGGGCAGAGCUCAACACAGCGUGGCAAAGUGGCUGUGGCUAGACUGCCUCUCUGGAUUCCUCGUCACUCAGCAGGGCAUCUCUGAGAGAAAUGCC

The source gives no read counts; variants with many changes may rest on few reads.

The variants in this series derive from B1. Put plainly: self-cleavage, relative activity (ratio to wild type); higher = more cleavage; in vitro, sequencing; the parent is a self-cleaving ribozyme.
Consider A69G U109C A117U, for which the self-cleavage was determined as 0.3.

Take G7U U12G U20A U73A C111U: the self-cleavage was 1.65.

For the variant G74U U100C U104C, the self-cleavage was 1.96.

On to A57G A94G U96C C103A U143A, for which the self-cleavage is 0.21.

Consider U5C U52A A121G, for which the self-cleavage turned out to be 1.65.

Regarding U9C U96A A140G, the self-cleavage came to 0.06.

As for A59G U62C G135U, the self-cleavage turned out to be 0.03.

For U15C U102C U134C U143A, the self-cleavage turned out to be 0.84.

On to U5A A42G A65U, for which the self-cleavage turned out to be 0.37.

Consider C90U U130A A140G, for which the self-cleavage stood at 0.04.

As for A43G A50G U143C, the self-cleavage came out at 0.42.

As to U12C G40A U112A, the self-cleavage is 0.97.

Regarding U5C A42G C90U C123A A124G, the self-cleavage stood at 0.07.

Consider A94G A107G A121C, for which the self-cleavage was 0.84.

Take G7U A50U A64G: the self-cleavage came to 0.14.

With U46C U52C A67G, the self-cleavage worked out at 1.31.

As to A65G U87A A121G, the self-cleavage is 0.

Regarding U12C U46A U81A, the self-cleavage came to 2.4.

As to U52C U81A A140U, the self-cleavage was determined as 1.52.

Turning to G34U U73C U108G, the self-cleavage was 1.38.

For the variant U23C U47C A50G U91A U100C, the self-cleavage came out at 0.

In the case of U39C A65U U102A, the self-cleavage came to 0.09.

Turning to U104C A121G U130A, the self-cleavage turned out to be 2.41.

For the variant G4A A69U U87A U100C, the self-cleavage stood at 0.02.

Consider U9C A65U A140G, for which the self-cleavage was determined as 0.21.

On to G4A U26A G89C U130G A138G, for which the self-cleavage is 0.08.

For the variant U9A G35A U85A A121G, the self-cleavage was 0.14.

U5C U104A U115C: the self-cleavage was found to be 1.08.

For U73A A92U A94G A121U, the self-cleavage stood at 0.21.

Take C37U U52C U62A A69G A107G U130C A138G: the self-cleavage was determined as 0.24.

As to U39C A42G U100A U130C, the self-cleavage came out at 1.22.

Take U14C U47G U108C: the self-cleavage is 1.53.

Regarding U12C U14C U26C, the self-cleavage came out at 0.93.

With A59G C76U U85A G97A C116U A141G, the self-cleavage is 0.01.

With A42G U100A A129G U130C, the self-cleavage was 0.92.

As for G40A U46C U87C, the self-cleavage was 0.

With U13A U81A A129G, the self-cleavage was found to be 2.19.

For the variant C28A U96C U102C, the self-cleavage is 0.09.

C37U C66A A94G: the self-cleavage worked out at 0.03.

On to U15C A67G U73C, for which the self-cleavage was found to be 1.35.

Turning to U14C C95U A142G, the self-cleavage turned out to be 0.24.

For the variant U1C U20C U100A, the self-cleavage worked out at 0.36.

With U15C G21A U130A, the self-cleavage came to 1.05.

Regarding A31G A92U U104A U112C, the self-cleavage stood at 0.69.

For the variant G7U U52C A121U, the self-cleavage is 1.53.

A79G A138G A142G: the self-cleavage stood at 1.02.

Consider A65G C76U U91C U109C, for which the self-cleavage was found to be 0.

On to U14C A30G U52A G114A, for which the self-cleavage came out at 1.99.

Turning to U9A U85C U112C, the self-cleavage was determined as 0.39.

For the variant U13C U46C U112C, the self-cleavage is 1.72.

For the variant A2G G89A U143C, the self-cleavage turned out to be 0.11.

Take U1C U13C A59U A65G: the self-cleavage came to 0.

Turning to G8A A31G G36A, the self-cleavage is 1.17.

Take A43U U81C A121C: the self-cleavage turned out to be 1.34.

As to U9A U47C U108A, the self-cleavage came to 0.75.

Take A107G A117G U134C: the self-cleavage came out at 2.3.

As to U15C A65G A69G U134C, the self-cleavage is 0.

As to A30G U104C C113A, the self-cleavage was found to be 1.31.

Turning to U39G A43G U108C, the self-cleavage worked out at 0.32.

As for U13C U14C G93A A121C A124G A141G U143C, the self-cleavage worked out at 0.08.

U15G U115C G125U: the self-cleavage is 1.04.

Regarding C17G A69U A94U, the self-cleavage amounted to 0.02.

In the case of C51U G55A U115C U132C, the self-cleavage is 0.29.

On to G8C C18A G126C A138U, for which the self-cleavage worked out at 1.15.

Take U73A U115C A121G: the self-cleavage is 1.08.

In the case of U13G U73C A94U, the self-cleavage worked out at 0.44.

On to G53A A65U A94G, for which the self-cleavage was 0.06.

Turning to A6G U13C G32C U115C, the self-cleavage amounted to 0.

Turning to U13A C19G C28U U109G, the self-cleavage amounted to 1.53.

As for U52C C113A U132C, the self-cleavage was determined as 0.5.

As to G36C U109A A121G A129G, the self-cleavage amounted to 2.35.

As for A57G G86A U102A U143C, the self-cleavage was 0.03.

For the variant G36C A107G C123G, the self-cleavage was 1.43.

With A22G A24G C95A C123A, the self-cleavage stood at 0.05.

For the variant U39C U47A G75A U104A A141G, the self-cleavage was determined as 0.59.

Consider A129G U132C U143A, for which the self-cleavage worked out at 1.72.

As for U45C C63U A129G, the self-cleavage is 0.26.

In the case of A121G U132C A140G, the self-cleavage turned out to be 2.16.

Turning to U119A A124G U130A, the self-cleavage stood at 1.61.

Consider U46C A107G U134A, for which the self-cleavage is 1.87.

As for A42G A65G G137U, the self-cleavage is 0.18.

Take U12C U14C U26C C63U U102A A140G: the self-cleavage was found to be 0.47.

In the case of U12A U81A U102C, the self-cleavage came to 2.3.

Turning to A42G A77G A94G, the self-cleavage was 1.72.

Consider U20C U26C G32A C84U, for which the self-cleavage was 0.21.

Take U73C U100C U112C: the self-cleavage worked out at 0.

As to U5C A77G C103A U104C, the self-cleavage was 1.02.

On to U15C C61U U112C, for which the self-cleavage came out at 0.06.

Take U46C G55C A121G A140G: the self-cleavage turned out to be 0.42.

For the variant C3U U100C U102A U108C, the self-cleavage was 0.97.

For A57C U85A A124G, the self-cleavage stood at 0.14.

Take G8U U62C A64U U73C: the self-cleavage is 0.06.

Take U5C C19A A43U A78G: the self-cleavage came to 0.69.

Turning to U104A U112C A138G, the self-cleavage worked out at 1.31.

As for U23A A69G A141G, the self-cleavage amounted to 0.

For the variant U1A A57G U85A, the self-cleavage amounted to 0.14.

As to A24G A59G A92G, the self-cleavage came out at 0.16.

For U23A A59G U109C A138G, the self-cleavage came out at 0.11.

In the case of U13C C68U U130A, the self-cleavage came out at 0.15.

As for U12G A43G A142G, the self-cleavage was 0.

On to U14C A67G U115C, for which the self-cleavage turned out to be 0.71.

With A2G U13C U85C U91A, the self-cleavage is 0.

For the variant U29C U39A A57U, the self-cleavage is 1.02.

With U5C A30G U119C, the self-cleavage amounted to 0.68.

With C56U A65G U100C, the self-cleavage came out at 0.06.

Consider U5C U45C A65U U112C A140G, for which the self-cleavage is 0.35.

Consider A42G A64G U96A U130A C131U, for which the self-cleavage came out at 0.06.

Turning to G70U U73C U102C A129G, the self-cleavage is 0.

Turning to C17U G54C G88C C103A A117G A140G U143C, the self-cleavage was determined as 0.06.

For U12C A22U U143A, the self-cleavage was 1.16.

In the case of A50G U115C U132C, the self-cleavage worked out at 0.

As for C18G U73C U108A A117G, the self-cleavage was 1.02.

For the variant U46G A59G U62C, the self-cleavage was 0.46.

Turning to A64G A69G U102C A141G, the self-cleavage is 0.

For A65G U115A U132A, the self-cleavage came to 0.04.

Consider A6G A43U A94U, for which the self-cleavage was determined as 0.39.

For U45A A65U A79C U87A A142G, the self-cleavage was determined as 0.03.

Turning to U23C A24G G75A A136U, the self-cleavage turned out to be 0.59.

Consider A6G A42G A59G U62C A138G, for which the self-cleavage was found to be 0.

As to U1C U39A A124G, the self-cleavage stood at 0.44.

As to U14C G34U A57G, the self-cleavage turned out to be 1.35.

On to U13C G74A A77G, for which the self-cleavage was determined as 0.66.

A64C G70U A141G: the self-cleavage is 0.05.

Regarding U12C U47A G75A A94U, the self-cleavage turned out to be 0.14.

With A67G A79G U119C, the self-cleavage was determined as 1.45.

Consider A42G A43G A69G, for which the self-cleavage is 0.77.

For U9C U14G U130C, the self-cleavage stood at 2.23.

Regarding A2G A138G A141G, the self-cleavage is 1.62.

In the case of G72A U109C A142G, the self-cleavage stood at 1.16.

As for U20A A50G A124G, the self-cleavage stood at 0.92.

Turning to U15C U47C G106U A140G, the self-cleavage amounted to 1.18.

On to U14C A31C U39C U91A, for which the self-cleavage was determined as 0.

U9C U73A U112C: the self-cleavage is 1.56.

As for U39C A50G A129U A136G, the self-cleavage came out at 1.44.

For A43G G49U A59G C71A U104C, the self-cleavage came out at 0.05.

As for U109A G114A A138U A140G, the self-cleavage stood at 1.25.

In the case of A30G U39A U73A A140U, the self-cleavage amounted to 1.5.

For A24G U112A C116U, the self-cleavage was 1.36.

As to U15A A50G A141G, the self-cleavage turned out to be 1.2.

Consider A6U G135A A141G, for which the self-cleavage was 1.49.

C113U U132C A138U: the self-cleavage turned out to be 2.24.

In the case of G72A U112C A138U C145U, the self-cleavage turned out to be 1.23.

For the variant G48C A79G U143G, the self-cleavage was 0.91.

Regarding U1C U23C U47C A141G, the self-cleavage was 0.81.

A24G A77U U85A: the self-cleavage was found to be 0.

Consider U39A A42G A136G, for which the self-cleavage stood at 0.9.

Take G82A U96C C146U: the self-cleavage worked out at 0.09.

Consider U15C C113U A141G A142G, for which the self-cleavage turned out to be 2.02.

As to U20G A67G U112A, the self-cleavage came out at 0.

With A24G A31G A57G U62C U130C, the self-cleavage came out at 0.

As for G34U U45C U62C U115C, the self-cleavage is 0.

Take A43G A57U A94G: the self-cleavage turned out to be 0.

For U13C U104C A136U, the self-cleavage turned out to be 1.75.

With A24G G54A A67G C116U U132C, the self-cleavage was 0.14.

As to A43G A65G U85A, the self-cleavage was determined as 0.1.

As for A2G C3U U108C, the self-cleavage was determined as 1.19.

Regarding U46A G48A A64G U91C U112C, the self-cleavage came to 0.03.

U23C A59G U115A A121G A141G: the self-cleavage came to 0.26.

For the variant U15C U26C A129C A142G, the self-cleavage was determined as 1.53.

For A117U A129U A138G A140G, the self-cleavage amounted to 1.37.

Regarding A22G G49C A78G U85A U102C, the self-cleavage is 0.

For A67G U85A U100A C111U, the self-cleavage worked out at 0.07.

With U15C A43G A79U U104C U130C, the self-cleavage was found to be 1.84.

Turning to A30U U46A U96C U115A, the self-cleavage worked out at 0.11.

For U73A U115A G144A, the self-cleavage was 0.77.

Regarding A42G U102G A124G, the self-cleavage is 0.

With U26A A67C C101U, the self-cleavage was 0.
